Laboratory results published in PubChem BioAssay AID2546 (National Center for Advancing Translational Sciences (NCATS), 2010).
The campaign covered roughly 310,000 compounds. About 11,000 (3.5%) were called active. This list was built around the results that the source calls inconclusive (neither active nor inactive); the mix of calls is not that of the screen. The call rests on the fitted dose curve; in most records, active means well fitted inhibition curve with a large enough effect; inconclusive means small, poorly fitted or top-dose-only effect, or effect the other way; inactive means flat fitted curve, though single readings scatter. Potencies of inconclusive entries are left out as doubtful fits.

assay: VP16 counterscreen qHTS for inhibitors of ROR gamma transcriptional activity; details: Drosophila S2 Gal4-VP16 UAS-luciferase, luminescence, 20 h; activity, negative = inhibition: at 53.6 µM (top of the series);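 further: Gal4-VP16 expression switched on by copper sulfate through the metallothionein promoter; nearly all actives have a fitted effect of over 50% in size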
On the % scale 0 is the no-effect control and ±100 the full control effect; potency means the concentration at half of the fitted maximal effect; tags describe the fitted curve by direction and shape.

| Compound | activity, negative = inhibition | Potency |
| --- | --- | --- |
| COc1cc(O)c2c(=O)c(-c3ccc(O[C@@H]4O[C@H](CO)[C@@H](O)[C@H](O)[C@H]4O)cc3)coc2c1 | inactive: -2.75% |  |
| CC(=O)NC(CC(=O)NC1CCCc2ccccc21)c1ccccc1 (stereo not given) | inactive: 3.03% |  |
| CC(C)CNS(=O)(=O)c1ccc(CCC(=O)NCc2ccco2)cc1 | inactive: 4.97% |  |
| O=C(NCc1ccc(F)cc1)c1ccc(N2CCc3ccccc32)c([N+](=O)[O-])c1 |  | inconclusive [inhibitor, single point] |
| COC(=O)c1ccc(CSc2nnc(-c3c[nH]c4ccccc34)n2C)o1 | inactive: 1.12% |  |
| CCCCOc1cccc(C(=O)Nc2ccc(NC(=O)c3cccs3)cc2)c1 |  | active: 0.1 µM |
| O=C(NC(=S)Nc1cccnc1Cl)c1ccc(F)cc1 |  | inconclusive [activator, single point] |
| CSc1cccc(NC(=O)/C=C/c2ccc(Cl)cc2)c1 |  | inconclusive [inhibitor, full curve, poor fit] |
| COc1cnc(-c2ccccn2)nc1Sc1ccccc1 |  | active: 11.2 µM |
| O=C(NCc1ccccc1Cl)c1cccc(NC(=O)c2ccccc2)c1 | inactive: -12% |  |
| C=CCN(CC=C)C(=S)NC(=O)/C=C/c1ccc(C)cc1 |  | inconclusive [inhibitor, single point] |
| CCCCNC(=O)Cc1ccc(C)cc1 |  | inconclusive [activator, single point] |
| Cc1c(C(=O)OCC(=O)Nc2ccc(S(N)(=O)=O)cc2)oc2c1ccc1ccccc12 |  | inconclusive [inhibitor, partial curve, poor fit] |
| CCOc1ccc2[nH]c3nc(SCC(=O)NCC4CCCO4)nnc3c2c1 (stereo not given) |  | inconclusive [inhibitor, single point] |
| O=C(NC(=O)N1CCOCC1)c1ccccc1 |  | inconclusive [activator, single point] |
| Cc1cc(C)c(S(=O)(=O)Nn2cnnc2)c(C)c1 | inactive: 2.75% |  |
| COc1ccc2[nH]cc(CCNc3ncncc3-c3ccc4c(c3)OCO4)c2c1 |  | inconclusive [inhibitor, single point] |
| COc1ccccc1N1C(=S)N=C(Nc2c(C)cccc2C)C12CCCC2 |  | inconclusive [inhibitor, single point] |
| Cc1sc2ncnc(N3CCCC(C)C3)c2c1C (stereo not given) | inactive: -8.76% |  |
| COc1ccc(CNc2nc3ccccc3n2Cc2ccc(Cl)cc2)cc1OC |  | inconclusive [inhibitor, single point] |
| COc1cccc(NC(=O)Nc2ccc3c(c2)nc(C)n3C)c1 |  | active: 11.2 µM |
| Cc1cc(=O)[nH]c(N/N=C/c2ccc3c(c2)OCCO3)n1 | inactive: -22.2% |  |
| Cn1ncc2c(Nc3ccccc3Cl)nc(Nc3ccccc3Cl)nc21 |  | inconclusive [inhibitor, single point] |
| CCOc1ccc(C(=O)NC(=S)Nc2ccc(N3CCC(C)CC3)cc2)cc1[N+](=O)[O-] |  | inconclusive [inhibitor, full curve] |
| CCOC(=O)C1=C(C)C(c2ccccc2)NC(=S)N1 (stereo not given) |  | inconclusive [inhibitor, single point] |

| Compound | activity, negative = inhibition | Potency |
| --- | --- | --- |
| O=C(NCc1ccncc1)c1nc(-c2ccc(C(F)(F)F)cc2)no1 |  | inconclusive [inhibitor, single point] |
| CN=c1scc(-c2cccs2)n1/N=C/c1ccc(O)c(O)c1O |  | active: 1.41 µM |
| c1ccc(-n2nnnc2SCc2cccc(CSc3nnnn3-c3ccccc3)n2)cc1 | inactive: 0.86% |  |
| CCCC[n+]1ccn(C2=C([O-])c3ccccc3C(=O)/C2=N\S(=O)(=O)c2ccc(Br)cc2)c1 |  | inconclusive [inhibitor, single point] |
| CCCC(=O)Nc1cc(-c2nc3ncccc3o2)ccc1Cl | inactive: -3.96% |  |
| CCc1ccc(CCC(=O)Nc2ncc(Cc3ccccc3Cl)s2)o1 |  | inconclusive [inhibitor, partial curve] |
| COc1ccc(/C(N)=N/OC(=O)CC2CCCCC2)cc1OC |  | inconclusive [inhibitor, partial curve] |
| O=C1[C@H]2[C@@H](C(=O)N1c1cccc3ccccc13)C1(C(=O)c3ccccc3C1=O)N1CCC[C@@H]21 |  | active: 20 µM |
| Nc1nonc1-n1nnc(C(=O)N/N=C/c2ccco2)c1-c1ccccc1 |  | inconclusive [inhibitor, single point] |
| COc1ccccc1C1CCN(C(=O)c2ccc(C(C)(C)C)cc2)CC1 |  | inconclusive [inhibitor, single point] |
| O=C(O)c1ccc2c(=O)n3c(nc2c1)/C(=C/c1cccc(Cl)c1Cl)CC3 | inactive: 5.4% |  |
| C=CCC1(c2ccccc2)Oc2ccccc2-c2nc3cc(Cl)c(Cl)cc3nc21 (stereo not given) |  | inconclusive [inhibitor, single point] |
| Oc1c(Cl)cc(Cl)cc1Sc1cc(Cl)cc(Cl)c1O |  | active: 12.6 µM |
| O=C(CCn1c2c(c3ccccc31)CCCC2)NNC(=O)c1ccccc1Cl | inactive: -9.58% |  |
| Cc1c(C(=O)N(C)C2CCCCC2)sc2ncnc(N3CCN(c4ccccc4F)CC3)c12 | inactive: -13.6% |  |
| COc1ccc(-n2c(=S)[nH]c3ccccc32)cc1 |  | active: 20 µM |
| CN(C)c1ccc(/C=C2\C(=O)Nc3ccccc32)cc1 |  | inconclusive [inhibitor, single point] |
| O=C(NC1CCCCCC1)C(=S)NCc1ccccc1 | inactive: 6.16% [at 10 µM] |  |
| O=c1nc(N(c2ccccc2)c2ccccc2)[nH]c(=O)[nH]1 | inactive: 1.34% |  |
| CCOC(=O)N1CCC(Nc2ncnc3c2cnn3-c2ccc(Cl)cc2)CC1 | inactive: 7.71% |  |
| COc1ccccc1C(=O)/C=C/c1ccc(N2CCCCC2)c([N+](=O)[O-])c1 |  | active: 6.31 µM |
| O=c1cc(N2CCc3ccccc32)[nH]c(=O)n1-c1ccccc1Cl | inactive: -3.53% |  |
| Cc1ccc(-c2nnc(N3CCCCC3)c3ccccc23)cc1S(=O)(=O)N(C)C |  | active: 17.8 µM |
| O=C(NCc1cc([N+](=O)[O-])ccc1O)c1cccc(NS(=O)(=O)c2ccccc2)c1 |  | active: 12.6 µM |
| Cc1cccc(NC2=C(NC(=O)c3ccccc3)C(=O)c3ccccc3C2=O)c1 |  | inconclusive [inhibitor, single point] |

| Compound | activity, negative = inhibition | Potency |
| --- | --- | --- |
| CN(C)S(=O)(=O)c1cccc(C(=O)Nc2cc(Cl)cc(Cl)c2)c1 |  | inconclusive [inhibitor, single point] |
| Nc1ccccc1-c1n[nH]c(=S)s1 | inactive: -1.22% |  |
| COc1ccc2nc3cc(Cl)ccc3c(Nc3cc(CN4CCCC4)c(O)c(CN4CCCC4)c3)c2n1 |  | inconclusive [inhibitor, single point] |
| NNC(=O)c1ccc(COc2ccccc2)cc1 |  | inconclusive [inhibitor, partial curve] |
| COc1ccc(-c2cc(C(=O)OCC(=O)c3ccc(C)c([N+](=O)[O-])c3)c3ccccc3n2)cc1 |  | inconclusive [inhibitor, single point] |
| COc1ccc(CCNC(=O)/C=C/c2ccco2)cc1 | inactive: 29.6% |  |
| Cc1cc(C)nc(SCc2cc(=O)c(OC(=O)c3ccc(S(=O)(=O)N(C)C)cc3)co2)n1 |  | inconclusive [inhibitor, single point] |
| CCOC(=O)CSc1nc2cc(OCC)ccc2cc1C#N | inactive: -0.48% |  |
| CCOC(=O)C1(CCC(C)C)CC(CSc2nc3ccccc3[nH]2)OC1=O (stereo not given) |  | inconclusive [inhibitor, partial curve] |
| Cc1cccn2cc(CCNS(=O)(=O)c3ccc([N+](=O)[O-])cc3)nc12 |  | inconclusive [inhibitor, single point] |
| Cc1ccc2c(C(=O)CN3CC(C)CC(C)C3)c(C)[nH]c2c1 (stereo not given) | inactive: 1.36% |  |
| CCC(CC)C1C(C#N)=C(N)Oc2n[nH]c(-c3ccccc3)c21 (stereo not given) | inactive: -16.5% |  |
| O=C(NC(=S)N1CCN(C/C=C/c2ccccc2)CC1)c1cccnc1 |  | active: 0.891 µM |
| Cc1ccc(C(=O)Nc2nc(C)c(C)s2)o1 |  | inconclusive [inhibitor, single point] |
| COC(=O)CC1(C(=O)OC)Oc2ccc(Br)cc2C(=O)N1c1cc(Cl)c(Cl)cc1Cl (stereo not given) | inactive: -19.8% |  |
| Cc1cc(OCC(=O)N(C(C)C)C(C)C)ccc1Cl |  | inconclusive [inhibitor, single point] |
| COc1ccc(CCCc2nnc(SCc3nc4ccccc4c(=O)[nH]3)n2C)cc1C | inactive: -2.52% |  |
| O=C(CCc1ccc(S(=O)(=O)NCCc2ccccc2)cc1)NCc1ccc2c(c1)OCO2 |  | inconclusive [inhibitor, single point] |
| COc1ccc(/C=N/NC(=O)c2ccc(O)cc2O)cc1CSc1ccccn1 |  | active: 2 µM |
| COc1ccc(CCNS(=O)(=O)c2c(C)[nH]c(C)c2C(=O)N2CCCCC2)cc1OC |  | inconclusive [inhibitor, partial curve] |
| Cc1ccc(-c2[nH]ncc2/C=C(\C#N)C(=O)NC2CCCCC2)cc1 |  | inconclusive [inhibitor, single point] |
| CCC1(C)Cc2c(sc(NC(=S)NC(=O)c3ccccc3)c2C#N)CO1 (stereo not given) |  | inconclusive [inhibitor, single point] |
| Cc1cc(C)c2cc(C(=O)Nc3ccccc3)[nH]c2c1 |  | inconclusive [inhibitor, single point] |
| Cn1c(COc2ccccc2)nc2ccccc21 |  | inconclusive [activator, single point] |
| CC(C)(C)C(=O)c1no[n+]([O-])c1/C(=N/O)C(C)(C)C |  | inconclusive [inhibitor, single point] |
